Legend:
[1] = target: T1, human Nerve Growth Factor (human, UniProt P01138 part only); experiment: SPR (Biacore 8K), fusion captured on Protein A chip, hNGF as analyte, multi-cycle kinetics
T1 construct: Bought recombinant protein; also called hNGF; human NGF
Procedure: (§1) Briefly, Protein A Sensor Chip (Cytiva) was docked into Biacore 8K, equilibrated for 30′ at RT and then Running Buffer (10 mM HEPES pH7.4 150 mM NaCl 3 mM EDTA and 0.005% Tween20) was applied to the SPR chip surface.
PetML319, PetML308 or PetML309 was diluted into running buffer at 6 nM concentration. These have been immobilised using 90 see association at 10 uL/min as capturing step, followed by injection of running buffer to remove any unbound product.
(§2) Kinetics were assessed using multi-cycle kinetics with capture step method (30 see association-300 see dissociation) followed by regeneration step (0.1M Glycine pH2.2 contact time 60 see FR 30 uL/min). Kinetics quantification have been performed using Biacore Insight following standard analyses methods (Table 5).

rat Nerve Growth Factor = target: T2, rat Nerve Growth Factor (rat, UniProt P25427 122-241, limits assumed); experiment: SPR (Biacore 8K), fusion captured on Protein A chip
rat Nerve Growth Factor, sequence (P25427 122-241 limits assumed): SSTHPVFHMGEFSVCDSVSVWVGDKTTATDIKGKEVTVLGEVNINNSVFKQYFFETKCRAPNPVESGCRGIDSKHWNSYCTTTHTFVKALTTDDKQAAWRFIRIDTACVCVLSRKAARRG
T2 construct: Bought recombinant protein; also called rNGF; rat NGF
Procedure: as §1, with “Binding affinity of fusion proteins to human and rat NGF was assessed using Biacore 8K (Cytiva). Briefly,” for “Briefly,”
These were immobilised using 90 see association at 10 uL/min as capturing step, followed by injection of running buffer to remove any unbound product.
as §2, with “methods.” for “methods (Table 5).”

[2] = target: NGF (species not stated at the place) (Homo sapiens (Human)) (UniProt P01138); experiment: SPR (Biacore 8K), fusion captured on Protein A chip, NGF as analyte; the table does not say human or rat NGF
[3] = target: NGF (species not stated at the place) (Homo sapiens (Human)) (UniProt P01138); experiment: cell-based or functional assay

T1 sequence (P01138 122-241 limits assumed): as the sequence (P25427 122-241 limits assumed) above, with T3S, V6I, M9R, T37M, A60D, E65D, T92M, D94G, A117V, G120A counted along it

Binder	Kd [1] [nM]	koff [1] [s⁻¹]	kon [1] [M⁻¹ s⁻¹]	binding result (rat Nerve Growth Factor)	Kd [2] [nM]	Bottom (%), PathHunter TrkA activation assay [3] [%]	IC50 (nM), PathHunter TrkA activation assay [3] [nM]	Top (%), PathHunter TrkA activation assay [3] [%]
PetML 309 - Human p75NTR ECD partial stalk IgG1 (Fc fusion) KEACPTGLYTHSGECCKACNLGEGVAQPCGANQTVCEPCLDSVTFSDVVSATEPCKPCTECVGLQSMSAPCVEADDAVCRCAYGYYQDETTGRCEACRVCEAGSGLVFSCQDKQNTVCEECPDGTYSDEANHVDPCLPCTVCEDTERQLRECTRWADAECEEIPGRWITRSTPPEGGGG[sequence of human IgG1 Fc omitted]	24.8	0.0275	1.11e+06	binds	2.31	28.7	18.7	97.9
PetML 319 - Human p75NTR ECD no stalk (Fc fusion) KEACPTGLYTHSGECCKACNLGEGVAQPCGANQTVCEPCLDSVTFSDVVSATEPCKPCTECVGLQSMSAPCVEADDAVCRCAYGYYQDETTGRCEACRVCEAGSGLVFSCQDKQNTVCEECPDGTYSDEANHVDPCLPCTVCEDTERQLRECTRWADAECEEIPGGGG[sequence of human IgG1 Fc omitted]		0.000659	8.86e+06	binds	0.358		8.04	
PetML 308 - Human p75NTR ECD full stalk IgG1 (Fc fusion) KEACPTGLYTHSGECCKACNLGEGVAQPCGANQTVCEPCLDSVTFSDVVSATEPCKPCTECVGLQSMSAPCVEADDAVCRCAYGYYQDETTGRCEACRVCEAGSGLVFSCQDKQNTVCEECPDGTYSDEANHVDPCLPCTVCEDTERQLRECTRWADAECEEIPGRWITRSTPPEGSDSTAPSTQEPEAPPEQDLIASTVAGVVTTVMGGGG[sequence of human IgG1 Fc omitted]	5680	0.00194	342	binds	8.78	44.5	282	105
